The record followed here is PMC3378326 (Structure(London, England:1993), 2012).

Common to all, as to assay: SPR
For orientation: SPR reads the build-up and loss of mass on a sensor chip optically.

The target in one test is T1, D1-AB-D2-D3 (FGFR1c) (UniProt P11362 22-376).
T1 sequence (looked up): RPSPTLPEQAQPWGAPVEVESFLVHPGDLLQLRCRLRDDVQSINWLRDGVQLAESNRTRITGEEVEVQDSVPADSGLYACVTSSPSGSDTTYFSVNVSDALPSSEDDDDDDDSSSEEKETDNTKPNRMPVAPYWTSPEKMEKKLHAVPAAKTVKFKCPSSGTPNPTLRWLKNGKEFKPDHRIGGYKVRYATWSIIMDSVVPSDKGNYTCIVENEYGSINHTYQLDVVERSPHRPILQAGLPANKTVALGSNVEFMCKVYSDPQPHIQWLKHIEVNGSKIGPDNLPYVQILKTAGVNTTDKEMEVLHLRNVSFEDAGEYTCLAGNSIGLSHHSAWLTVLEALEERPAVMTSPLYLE

For test [1], the target named is T2, D1-AB11ALA-D2-D3 (FGFR3c) (UniProt P22607 23-375, residues D133 to D143 collectively mutated to alanines).
T2 sequence: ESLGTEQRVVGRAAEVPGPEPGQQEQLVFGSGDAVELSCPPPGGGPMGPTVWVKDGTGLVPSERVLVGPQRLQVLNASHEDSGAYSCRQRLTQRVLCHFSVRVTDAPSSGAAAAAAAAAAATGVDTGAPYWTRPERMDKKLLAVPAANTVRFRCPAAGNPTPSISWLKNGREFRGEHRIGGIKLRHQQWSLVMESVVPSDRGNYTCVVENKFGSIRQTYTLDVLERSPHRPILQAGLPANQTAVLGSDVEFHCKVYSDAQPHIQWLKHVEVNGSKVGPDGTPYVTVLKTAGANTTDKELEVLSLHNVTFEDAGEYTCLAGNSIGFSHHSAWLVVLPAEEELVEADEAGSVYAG

A further test addresses T3, AB-D2-D3 (FGFR1c) (UniProt P11362 120-376).
T3 sequence (looked up): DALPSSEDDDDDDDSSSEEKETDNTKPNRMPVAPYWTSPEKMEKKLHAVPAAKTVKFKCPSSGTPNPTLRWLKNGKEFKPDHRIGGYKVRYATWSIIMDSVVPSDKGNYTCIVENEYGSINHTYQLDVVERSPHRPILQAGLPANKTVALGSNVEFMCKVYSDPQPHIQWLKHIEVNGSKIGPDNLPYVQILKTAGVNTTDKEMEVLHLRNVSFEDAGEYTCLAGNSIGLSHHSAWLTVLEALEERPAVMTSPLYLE

Test [2] concerns the target T4, D1-AB-D2-D3 (FGFR3c), full-length FGFR3c ectodomain (UniProt P22607 23-375).
T4 sequence (looked up): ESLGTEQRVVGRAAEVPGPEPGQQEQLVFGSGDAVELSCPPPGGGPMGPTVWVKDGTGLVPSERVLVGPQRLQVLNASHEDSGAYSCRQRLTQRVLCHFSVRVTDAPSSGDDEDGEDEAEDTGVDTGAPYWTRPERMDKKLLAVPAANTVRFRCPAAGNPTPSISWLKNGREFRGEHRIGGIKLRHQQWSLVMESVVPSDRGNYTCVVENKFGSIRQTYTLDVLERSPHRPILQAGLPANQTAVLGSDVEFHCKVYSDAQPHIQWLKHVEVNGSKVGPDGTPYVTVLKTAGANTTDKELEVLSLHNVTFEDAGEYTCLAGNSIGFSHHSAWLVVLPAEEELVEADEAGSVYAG

B1: FGF1 (ligand)
chain: not shown
As usually defined, the Kd is the equilibrium constant for the complex coming apart. Low values mean higher affinity, high ones lower affinity. On to B1, for which the Kd with D1-AB-D2-D3 (FGFR1c) was found to be 2000 nM; in test [1] it was 344 nM; with AB-D2-D3 (FGFR1c) it was 1230 nM; in test [2] it was 622 nM.
